Measurements reported in PubChem BioAssay (Tox21).
Where “and” joins values, the source holds several entries; their conditions need not be identical. Equal values may be shown once. The inconclusive results got no clear call from the source; some entries with a clear call stand among them for comparison. For some of these results: Potencies beside an inconclusive call are fits to weak or partial responses and may not hold up. Where a structure was tested more than once in an assay, its records may differ in their call. Calls of active or inactive are those of the source. Unless noted, the call rests on the fitted dose curve; in most records, active means well fitted curve in the direction sought with a large enough effect in the repeat runs; inconclusive means weak or mixed curves; inactive means no such curve, though single readings can be large; an effect the other way counts as inactive or inconclusive.

How the values were obtained:
[1] = qHTS assay to identify small molecule agonists of the androgen receptor (AR) signaling pathway in the presence of an antagonist - cell viability counter screen (AID 1259379); further: nearly all actives have a fitted effect of over 25% in size; further: potency means the concentration at half of the fitted maximal effect
In short: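 MDA-kb2 viability measured by CellTiter-Fluor fluorescence in the same wells as the luciferase signal; nilutamide 3.0uM final; 15-point compound titration; 16 hr at 37C.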

[2] = qHTS assay to identify small molecule agonists or antagonists of the thyroid stimulating hormone receptor (TSHR) signaling pathway - wild type cell line counter screen (AID 1259384; calls by dose curve; further: potency means the concentration at half of the fitted maximal effect; on cAMP activity change: on the % scale 0 is the no-effect control and ±100 the full control effect); conditions: HEK293 wild type, cAMP HTRF counter-screen; cAMP activity change: at 92.4 µM (top of the series), active compounds read high unless noted
In short: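 Wild-type Hek293 cells, 800/well, 18 h at 37C, then compound with Ro20-1724 for 30 min RT. cAMP by HTRF (cAMP-d2/anti-cAMP cryptate), 1 h RT, fluorescence read. 15 concentrations, triplicates.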

[3] = qHTS assay to identify small molecule agonists of the estrogen receptor alpha (ER-alpha) signaling pathway in the presence of an antagonist - cell viability counter screen (AID 1259386);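 further: potency means the concentration at half of the fitted maximal effect; cells exposed to compounds for 22 h at 37 °C before the viability read; nearly all actives have a fitted effect of over 30% in size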
In short: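 The test measures whether compounds kill ER-alpha reporter cells (VM7Luc4E2) under antagonist co-treatment (ICI-182,780, 10.0nM). Fluorescence from CellTiter-Fluor is read after a 22hr exposure.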

[4] = target: Progesterone receptor (Homo sapiens) (UniProt P06401); experiment: qHTS assay to identify small molecule antagonists of the progesterone receptor (PR) signaling pathway (AID 1346795; active means well fitted inhibition curve with a large enough effect in the signal ratio in the repeat runs, not every such curve was filed as active; inconclusive means weak or mixed curves; the % refers to the signal ratio; further: potency means the concentration at half of the fitted maximal effect); conditions: PR-UAS-bla HEK293T, beta-lactamase FRET ratio, 16 h; activity change, negative = inhibition: at 92.4 µM (top of the series) unless noted
Sequence of UniProt P06401 (P06401 whole entry, looked up): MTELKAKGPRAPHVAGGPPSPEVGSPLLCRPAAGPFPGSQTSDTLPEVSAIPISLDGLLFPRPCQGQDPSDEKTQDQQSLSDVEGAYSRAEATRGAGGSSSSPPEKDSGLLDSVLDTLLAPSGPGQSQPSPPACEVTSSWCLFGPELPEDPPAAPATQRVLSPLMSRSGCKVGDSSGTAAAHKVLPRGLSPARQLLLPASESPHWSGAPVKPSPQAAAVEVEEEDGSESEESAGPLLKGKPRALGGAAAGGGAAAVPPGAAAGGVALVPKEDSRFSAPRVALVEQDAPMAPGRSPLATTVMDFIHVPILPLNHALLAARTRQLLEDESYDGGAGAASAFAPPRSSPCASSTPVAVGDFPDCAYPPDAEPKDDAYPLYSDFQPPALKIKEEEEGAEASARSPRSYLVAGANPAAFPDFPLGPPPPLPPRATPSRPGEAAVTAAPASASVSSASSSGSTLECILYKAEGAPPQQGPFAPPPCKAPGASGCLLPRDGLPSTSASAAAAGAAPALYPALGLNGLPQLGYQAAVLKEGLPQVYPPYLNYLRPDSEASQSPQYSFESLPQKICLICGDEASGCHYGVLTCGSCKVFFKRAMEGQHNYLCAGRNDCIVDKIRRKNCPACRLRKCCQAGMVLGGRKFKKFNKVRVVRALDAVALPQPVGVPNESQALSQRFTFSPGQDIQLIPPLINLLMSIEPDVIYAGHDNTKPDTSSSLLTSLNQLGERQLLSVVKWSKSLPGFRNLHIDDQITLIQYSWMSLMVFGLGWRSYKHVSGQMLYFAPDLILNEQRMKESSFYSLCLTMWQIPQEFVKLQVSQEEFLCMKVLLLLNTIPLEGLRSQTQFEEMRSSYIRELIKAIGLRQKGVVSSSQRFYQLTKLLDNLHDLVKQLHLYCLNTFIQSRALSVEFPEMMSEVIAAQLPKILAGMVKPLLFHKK
In short: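 After 6 hr plating at 37C in 2% stripped-serum medium, PR-UAS-bla HEK293T cells got compounds, then 1 nM R5020. Sixteen hours later, LiveBLAzer substrate was applied for 2 hr at room temperature and fluorescence was recorded.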

[5] = qHTS assay to identify small molecule agonists of the TGF-beta/Smad signaling pathway (AID 1346859; active means well fitted activation curve with a large enough effect in the signal ratio in the repeat runs, not every such curve was filed as active; inconclusive means weak or mixed curves; the % refers to the signal ratio; further: potency means the concentration at half of the fitted maximal effect; on activation: on the % scale 0 is the no-effect control and ±100 the full control effect); conditions: SBE-bla HEK293T, TGF-beta/Smad beta-lactamase reporter, 5 h; activation: at 76.8 µM (top of the series) unless noted
In short: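 Dual-wavelength fluorescence (460/530 nm emission) quantified beta-lactamase expression under the Smad binding element in HEK 293T cells following 5 hr compound treatment at 37 C.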

[6] = qHTS assay to identify small molecule antagonists of the TGF-beta/Smad signaling pathway (AID 1346924; active means well fitted inhibition curve with a large enough effect in the signal ratio in the repeat runs, not every such curve was filed as active; inconclusive means weak or mixed curves; the % refers to the signal ratio; further: potency means the concentration at half of the fitted maximal effect); conditions: SBE-bla HEK293T, TGF-beta/Smad reporter, beta-lactamase ratio; activity, negative = inhibition: at 76.8 µM (top of the series) unless noted
In short: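 Read-out was FRET-substrate fluorescence (405 nm excitation; 460 and 530 nm emission) after 2 h at room temperature. Before that, cells carrying a Smad-binding-element beta-lactamase reporter in HEK 293T had been stimulated 5 h at 37 C with TGF-beta1 (0.25 ng/mL addition solution) in the presence of test compound.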

[7] = target: Estrogen receptor beta (Homo sapiens) (UniProt Q92731); experiment: qHTS assay to identify small molecule antagonists of the estrogen receptor beta (ER-beta) signaling pathway (AID 1259378; active means well fitted inhibition curve with a large enough effect in the signal ratio in the repeat runs, not every such curve was filed as active; inconclusive means weak or mixed curves, or effect the other way; inactive means no such curve, though single readings can be large or run the other way; the % refers to the signal ratio; further: on the % scale 0 is the no-effect control and ±100 the full control effect); conditions: ER-beta-UAS-bla HEK293T, beta-lactamase FRET ratio, 16 h; activity, negative = inhibition: at 92.4 µM (top of the series) unless noted
Sequence of UniProt Q92731 (Q92731 whole entry, looked up): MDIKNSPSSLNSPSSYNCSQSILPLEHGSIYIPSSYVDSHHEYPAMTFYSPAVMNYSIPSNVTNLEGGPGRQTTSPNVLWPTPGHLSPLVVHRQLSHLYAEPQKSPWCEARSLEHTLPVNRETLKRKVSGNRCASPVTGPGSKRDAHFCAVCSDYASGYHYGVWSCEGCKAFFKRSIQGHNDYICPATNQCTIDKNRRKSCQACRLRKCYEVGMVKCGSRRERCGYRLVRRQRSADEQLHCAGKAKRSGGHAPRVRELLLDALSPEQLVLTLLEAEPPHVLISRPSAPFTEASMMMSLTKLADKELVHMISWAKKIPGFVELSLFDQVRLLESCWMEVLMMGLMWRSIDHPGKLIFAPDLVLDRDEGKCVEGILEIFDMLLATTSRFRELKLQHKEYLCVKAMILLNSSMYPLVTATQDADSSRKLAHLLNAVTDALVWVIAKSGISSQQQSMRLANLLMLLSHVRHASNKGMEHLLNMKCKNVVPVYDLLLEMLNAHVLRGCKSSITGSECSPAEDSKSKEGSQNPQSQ
In short: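 ER-beta-UAS-bla HEK293T cells in 2% charcoal-stripped FBS medium treated with compound plus 1nM final 17-beta-estradiol for 16 hr at 37C. Beta-lactamase reporter read by FRET substrate fluorescence after 2 hours at room temperature.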

[8] = qHTS assay to identify small molecule agonists of the progesterone receptor (PR) signaling pathway - cell viability counter screen (AID 1346799; calls by dose curve; further: nearly all actives have a fitted effect of over 45% in size; further: potency means the concentration at half of the fitted maximal effect)
In short: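 Viability was scored by ATP luminescence (CellTiter-Glo, 30 min, room temperature) in the same wells used for the reporter readout, after 16 hr compound exposure of PR-UAS-bla HEK293T cells.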

[9] = target: Thyrotropin receptor (Homo sapiens) (UniProt P16473); experiment: qHTS assay to identify small molecule antagonists of the thyroid stimulating hormone receptor (TSHR) signaling pathway (AID 1259385; calls by dose curve; further: nearly all actives have a fitted effect of over 20% in size; further: potency means the concentration at half of the fitted maximal effect; on activity change, negative = inhibition: on the % scale 0 is the no-effect control and ±100 the full control effect); conditions: TSHR-HEK293 cAMP HTRF, TSH-stimulated antagonist mode; activity change, negative = inhibition: at 92.4 µM (top of the series) unless noted
Sequence of UniProt P16473 (P16473 whole entry, looked up): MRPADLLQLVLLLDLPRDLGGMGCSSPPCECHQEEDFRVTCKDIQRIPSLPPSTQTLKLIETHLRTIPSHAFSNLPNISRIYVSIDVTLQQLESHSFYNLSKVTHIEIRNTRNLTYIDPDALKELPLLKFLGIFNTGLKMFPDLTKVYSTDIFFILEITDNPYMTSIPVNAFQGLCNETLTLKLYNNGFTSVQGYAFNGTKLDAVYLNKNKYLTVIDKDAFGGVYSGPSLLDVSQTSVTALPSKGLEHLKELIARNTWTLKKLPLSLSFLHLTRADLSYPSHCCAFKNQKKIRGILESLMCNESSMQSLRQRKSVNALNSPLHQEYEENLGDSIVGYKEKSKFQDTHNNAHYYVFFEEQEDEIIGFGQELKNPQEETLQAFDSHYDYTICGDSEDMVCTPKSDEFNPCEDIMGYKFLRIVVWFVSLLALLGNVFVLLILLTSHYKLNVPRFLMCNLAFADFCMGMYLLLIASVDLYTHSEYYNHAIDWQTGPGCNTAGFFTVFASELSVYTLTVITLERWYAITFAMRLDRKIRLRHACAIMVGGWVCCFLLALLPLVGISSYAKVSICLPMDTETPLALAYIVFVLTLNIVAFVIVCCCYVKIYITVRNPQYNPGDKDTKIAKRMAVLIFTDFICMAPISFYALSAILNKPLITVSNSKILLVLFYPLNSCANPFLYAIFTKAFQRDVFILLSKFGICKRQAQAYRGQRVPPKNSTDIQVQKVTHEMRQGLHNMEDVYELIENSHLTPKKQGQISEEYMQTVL
In short: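 TSHR-HEK293 cells (800/well) plated 18 h, then compounds with Ro20-1724 and TSH at 1.5 ng/mL final, 30 min at room temperature. cAMP quantified by HTRF (cAMP-d2/anti-cAMP-cryptate, 1 h); 15 concentrations in triplicate.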

[10] = qHTS assay to identify small molecule antagonists of the progesterone receptor (PR) signaling pathway - cell viability counter screen (AID 1346798); further: potency means the concentration at half of the fitted maximal effect; nearly all actives have a fitted effect of over 50% in size
In short: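 Viability was determined by ATP-based luminescence (CellTiter-Glo) in PR-UAS-bla HEK293T cells cultured in 2% charcoal-stripped serum and incubated 16 hr with compounds under R5020 stimulation.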

[11] = qHTS assay to identify small molecule agonists of the estrogen receptor beta (ER-beta) signaling pathway - cell viability counter screen (AID 1259380); further: nearly all actives have a fitted effect of over 30% in size; further: potency means the concentration at half of the fitted maximal effect
In short: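 Measured: luminescence from CellTiter-Glo after 30 min at room temperature, added to wells already read for the LiveBLAzer FRET reporter (2 hr substrate); ER-beta-UAS-bla HEK293T cells had 16 hr compound treatment at 37C, 5% CO2.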

[12] = qHTS assay to identify small molecule antagonists of the estrogen receptor beta (ER-beta) signaling pathway - cell viability counter screen (AID 1259382); further: potency means the concentration at half of the fitted maximal effect; nearly all actives have a fitted effect of over 55% in size
In short: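 Readout: luminescence, CellTiter-Glo, same wells as bla assay. System: ER-beta-UAS-bla GripTite HEK293T, 2% charcoal-stripped FBS. Exposure: compounds plus 1nM 17-beta-estradiol, 16 hr, 37C.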

[13] = qHTS assay to identify small molecule antagonists of the TGF-beta/Smad signaling pathway - cell viability counter screen (AID 1346824); further: potency means the concentration at half of the fitted maximal effect; nearly all actives have a fitted effect of over 50% in size
In short: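 SBE-bla HEK 293T cells, incubated overnight, then compound plus 0.25 ng/mL TGF-beta1 (stock added) for 5 hr at 37 C. Viability was read in the same wells by CellTiter-Glo luminescence after 30 min at room temperature.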

[14] = qHTS assay to identify small molecule agonists of the TGF-beta/Smad signaling pathway - cell viability counter screen (AID 1346829); further: potency means the concentration at half of the fitted maximal effect; nearly all actives have a fitted effect of over 45% in size
In short: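 Luminescence from CellTiter-Glo, read after a 30 min room-temperature incubation, gives cell viability of SBE-bla HEK 293T cells treated 5 hr with compounds at 37 C.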

[15] = target: Estrogen receptor (Homo sapiens) (UniProt P03372); experiment: qHTS assay to identify small molecule agonists of the estrogen receptor alpha (ER-alpha) signaling pathway in the presence of an antagonist (AID 1259383; calls by dose curve; further: top concentration of the series differs between compounds; on the % scale 0 is the no-effect control and ±100 the full control effect; nearly all actives have a fitted effect of over 15% in size)
Sequence of UniProt P03372 (P03372 whole entry, looked up): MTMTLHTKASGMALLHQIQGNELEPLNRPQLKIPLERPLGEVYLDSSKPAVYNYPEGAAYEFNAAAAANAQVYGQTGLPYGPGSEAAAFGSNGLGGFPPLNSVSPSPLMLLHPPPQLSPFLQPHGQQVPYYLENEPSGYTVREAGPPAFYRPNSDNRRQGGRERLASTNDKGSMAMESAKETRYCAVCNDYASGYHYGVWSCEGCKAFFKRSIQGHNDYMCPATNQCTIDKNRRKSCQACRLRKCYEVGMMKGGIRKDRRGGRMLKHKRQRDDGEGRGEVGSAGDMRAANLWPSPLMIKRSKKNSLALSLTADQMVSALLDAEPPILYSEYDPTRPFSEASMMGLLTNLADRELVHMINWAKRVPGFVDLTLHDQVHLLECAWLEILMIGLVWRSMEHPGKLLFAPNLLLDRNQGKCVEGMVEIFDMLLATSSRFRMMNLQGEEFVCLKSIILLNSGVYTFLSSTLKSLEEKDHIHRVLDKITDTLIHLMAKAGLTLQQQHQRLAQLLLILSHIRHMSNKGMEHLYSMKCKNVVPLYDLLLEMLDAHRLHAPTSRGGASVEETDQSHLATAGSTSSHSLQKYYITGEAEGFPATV
In short: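 Quantitative HTS confirmation: compounds titrated at 15 concentrations onto estrogen-deprived VM7Luc4E2 cells carrying a four-ERE luciferase construct, with ICI-182,780 present at 10.0nM final. Signal is luminescence after 22hr exposure.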

[16] = target: Thyrotropin-releasing hormone receptor (Homo sapiens) (UniProt P34981); experiment: qHTS assay to identify small molecule antagonists of the thyrotropin-releasing hormone receptor (TRHR) signaling pathway (AID 1346877; active means well fitted inhibition curve with a large enough effect in the repeat runs, not every such curve was filed as active; inconclusive means weak or mixed curves; further: potency means the concentration at half of the fitted maximal effect)
Sequence of UniProt P34981 (P34981 whole entry, looked up): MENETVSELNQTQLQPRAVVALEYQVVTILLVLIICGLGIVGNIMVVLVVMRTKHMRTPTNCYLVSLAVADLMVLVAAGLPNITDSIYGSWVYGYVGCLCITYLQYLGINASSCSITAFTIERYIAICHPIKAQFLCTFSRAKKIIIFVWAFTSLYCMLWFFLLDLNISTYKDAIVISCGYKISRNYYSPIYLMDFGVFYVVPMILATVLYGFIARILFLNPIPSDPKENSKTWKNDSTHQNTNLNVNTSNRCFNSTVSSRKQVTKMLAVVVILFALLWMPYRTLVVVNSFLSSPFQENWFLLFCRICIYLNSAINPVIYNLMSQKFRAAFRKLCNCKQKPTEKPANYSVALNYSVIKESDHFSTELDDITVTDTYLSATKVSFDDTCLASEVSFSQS
In short: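 Overnight-plated (18 h, 37 °C) HEK293 cells expressing TRHR were dye-loaded 2 h, treated with compound, then stimulated with TRH at 1 nM final. Fluorescence intensity was captured every second for 3 min.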
Tags describe the fitted curve by direction and shape or compound fluorescence and quenching.

O=c1c(O)c(-c2ccc(O)cc2O)oc2cc(O)cc(O)c12
Potency [1]: inconclusive: 36.3 µM [cytotoxic, partial curve] | cAMP activity change [2]: inconclusive: -11.6% | Potency [3]: inconclusive: 40.7 µM [cytotoxic, partial curve] | Potency [4]: inconclusive: 25.7 µM [rising, partial curve] | Potency [5]: inconclusive: 32.6 µM [rising, partial curve, poor fit] | Potency [6]: inconclusive: 41.1 µM [rising, partial curve]

CCCCC(CC)COC(=O)CCCCC(=O)OCc1ccccc1 (stereo unspecified)
activity, negative = inhibition [7]: inconclusive: 12.6% | Potency [8]: inactive

COC(=O)CS
activity, negative = inhibition [7]: inconclusive: -31.8% | Potency [5]: inactive

COC(=O)Nc1nc2ccc(C(=O)c3ccccc3)cc2[nH]1
Potency [1]: inconclusive: 6.68 µM [cytotoxic, partial curve, poor fit] | activity change, negative = inhibition [9]: inconclusive: -17.7% [at 42.5 µM] | activity change, negative = inhibition [4]: inconclusive: -10.3% [at 42.5 µM] | Potency [10]: inconclusive: 0.211 µM [rising, full curve, poor fit] | activity, negative = inhibition [6]: inconclusive: 3.15% [at 35.3 µM]

CCN(Cc1cccc(S(=O)(=O)O)c1)c1ccc(C(=C2C=CC(=[N+](CC)Cc3cccc(S(=O)(=O)O)c3)C=C2)c2ccc(O)cc2S(=O)(=O)[O-])cc1
Potency [11]: inconclusive: 16.6 µM [cytotoxic, partial curve] | Potency [12]: inconclusive: 41.6 µM [cytotoxic, partial curve] | Potency [2]: inconclusive: 2.01 µM | Potency [9]: inconclusive: 3.71 µM [falling, full curve] | Potency [10]: inconclusive: 26.3 µM [cytotoxic, partial curve] | Potency [13]: inconclusive: 14.9 µM [cytotoxic, partial curve] | Potency [14]: inconclusive: 29.7 µM [cytotoxic, partial curve] | Potency [5]: inactive | activity, negative = inhibition [6]: inconclusive: -41.3% [at 35.3 µM]

Cc1ccc(OC(=O)c2ccccc2O)cc1
Potency [1]: inactive | Potency [8]: inconclusive: 38.6 µM [cytotoxic, partial curve]

Cc1oc(=O)oc1COC(=O)[C@@H]1N2C(=O)[C@@H](NC(=O)[C@H](N)c3ccccc3)[C@H]2SC1(C)C
Potency [11]: inactive

Fc1ccccc1
Potency [11]: inconclusive: 43.6 µM [rising, partial curve, poor fit]

CCN(CCN)c1cccc(C)c1
Potency [11]: inconclusive: 69.2 µM [cytotoxic] and inconclusive: 54.5 µM [cytotoxic, partial curve] | Potency [12]: inconclusive: 69.2 µM [cytotoxic, single point] and inconclusive: 61.1 µM [cytotoxic, partial curve, poor fit] | Potency [15]: inactive | Potency [4]: inconclusive: 69.2 µM [falling, single point] | Potency [10]: inconclusive: 77.7 µM [cytotoxic, single point] | activity, negative = inhibition [6]: inconclusive: -8.18%

CC(CNC1CCCCC1)OC(=O)c1ccccc1 (stereo unspecified)
Potency [11]: inactive

Nc1ccc(N)c(Cl)c1
Potency [11]: active: 61 µM and active: 61.1 µM | Potency [12]: active: 68.5 µM and active: 61.1 µM | Potency [2]: inconclusive: 48.6 µM [partial curve] | cAMP activity change [2]: inconclusive: -15.5% | Potency [9]: inconclusive: 34.4 µM [falling, partial curve] | activity change, negative = inhibition [9]: inconclusive: 2.72% | Potency [3]: inconclusive: 68.5 µM [cytotoxic] | Potency [8]: inconclusive: 1.72 µM [rising, partial curve, poor fit] | Potency [16]: active: 30.2 µM | activity, negative = inhibition [6]: inconclusive: -9.06%

CCCCOc1ccc(OCCCN2CCOCC2)cc1
Potency [11]: inconclusive: 7.5 µM [cytotoxic, partial curve]
